# The whole screen tested about 390,000 compounds, of which about 17,000 (4.4%) were called active. This list was built around the results that the source calls inconclusive (neither active nor inactive); the mix of calls is not that of the screen. Calls come from the whole dose curve; as a rule, active = well fitted inhibition curve with a large enough effect; inconclusive = small, poorly fitted or top-dose-only effect; inactive = no such curve, though single readings can be large or run the other way. Where the call is inconclusive, the potency comes from a doubtful curve fit.
# Target: Lysine-specific demethylase 4A (Homo sapiens) (UniProt O75164)
# Experiment: qHTS Assay for Inhibitors of JMJD2A-Tudor Domain; note: nearly all actives have a fitted effect of over 50% in size
# Conditions: AlphaScreen JMJD2A-Tudor / H3K4me3 peptide binding; series mostly up to 114 µM
# Potency is the fitted concentration of half-maximal effect; tags give direction and shape of the fitted curve.
# Sequence of UniProt O75164 (O75164 whole entry, looked up, the tested form may be a part): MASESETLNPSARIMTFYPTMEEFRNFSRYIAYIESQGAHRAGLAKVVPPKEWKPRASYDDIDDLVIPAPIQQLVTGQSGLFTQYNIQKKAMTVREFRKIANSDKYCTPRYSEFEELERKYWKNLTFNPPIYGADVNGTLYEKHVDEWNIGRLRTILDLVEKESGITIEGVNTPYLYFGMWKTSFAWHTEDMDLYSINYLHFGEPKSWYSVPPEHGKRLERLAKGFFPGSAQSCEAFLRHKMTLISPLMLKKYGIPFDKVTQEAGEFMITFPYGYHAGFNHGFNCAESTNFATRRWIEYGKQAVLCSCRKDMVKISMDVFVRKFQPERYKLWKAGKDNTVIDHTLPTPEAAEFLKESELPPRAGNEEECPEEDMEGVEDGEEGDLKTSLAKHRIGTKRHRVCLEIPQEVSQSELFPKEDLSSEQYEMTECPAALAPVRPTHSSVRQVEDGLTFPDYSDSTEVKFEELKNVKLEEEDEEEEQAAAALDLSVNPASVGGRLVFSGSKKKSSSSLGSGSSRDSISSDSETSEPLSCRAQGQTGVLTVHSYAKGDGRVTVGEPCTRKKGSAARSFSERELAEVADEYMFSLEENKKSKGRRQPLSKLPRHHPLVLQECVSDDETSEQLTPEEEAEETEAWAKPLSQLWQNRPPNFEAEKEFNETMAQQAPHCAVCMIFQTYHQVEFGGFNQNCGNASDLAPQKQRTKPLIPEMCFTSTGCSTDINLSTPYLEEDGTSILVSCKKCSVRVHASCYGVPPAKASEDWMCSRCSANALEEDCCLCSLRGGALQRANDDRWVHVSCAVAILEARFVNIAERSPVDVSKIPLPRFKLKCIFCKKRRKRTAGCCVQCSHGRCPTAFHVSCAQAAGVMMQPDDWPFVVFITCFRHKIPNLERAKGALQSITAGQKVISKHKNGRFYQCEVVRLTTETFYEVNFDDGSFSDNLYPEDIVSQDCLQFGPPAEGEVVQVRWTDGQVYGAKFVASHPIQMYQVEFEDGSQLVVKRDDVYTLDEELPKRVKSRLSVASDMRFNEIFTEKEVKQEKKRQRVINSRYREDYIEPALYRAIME
row,Compound,Potency
1,Cc1cc(C)cc(NC(=O)C(NS(=O)(=O)c2cccc3nsnc23)c2ccccc2)c1 (stereo not drawn),"inconclusive: 8.91 µM [inhibitor, full curve]"
2,Cc1ccc(C)c(N2CCN(CCCNC(=O)Cn3cccc3C(=O)c3ccccc3C)CC2)c1,"inconclusive: 31.6 µM [inhibitor, full curve]"
3,N#Cc1nc(COc2cccc(Cl)c2)oc1N1CCN(c2ccccc2)CC1,"inconclusive: 10 µM [inhibitor, full curve]"
4,O=C(Nc1ccc(Cl)cc1C(F)(F)F)c1ccccc1Cl,"inconclusive: 89.1 µM [inhibitor, single point]"
5,CCOc1ccc(C(=O)Nc2c(C(=O)N3CCC(N4CCCCC4)CC3)oc3ccccc23)cc1,"inconclusive: 4.47 µM [inhibitor, full curve, poor fit]"
6,CCC(Sc1nc2ccncc2[nH]1)C(=O)Nc1ccc(F)cc1 (stereo not drawn),inactive
7,CCn1c(CN2CCN(Cc3ccc(C)cc3)C(CCO)C2)nc2ccccc21 (stereo not drawn),inactive
8,O=S(=O)(c1ccccc1)c1nnn2c1nc(Nc1ccccc1)c1cc(Cl)ccc12,"inconclusive: 10 µM [inhibitor, partial curve, poor fit]"
9,CC1=CC(C)(C)n2c(O)c(N=N)c3c(C)c(C)cc1c32,"inconclusive: 14.1 µM [inhibitor, single point]"
10,Cc1onc(-c2c(F)cccc2Cl)c1C(=O)Nc1c(C)n(C)n(-c2ccccc2)c1=O,inactive
11,CCc1ccc(Nc2n[n+](C)c(-c3ccncc3)s2)cc1,active: 56.2 µM
12,CCCCNC(=O)C1=CC(c2ccc3c(c2)OCO3)=NS(=O)(=O)N1C,inactive
13,C/C(=N\NC(=O)c1cccc(N/N=C(\C)c2cc(O)ccc2O)c1)c1cc(O)ccc1O,active: 12.6 µM
14,CN=C1SC(CC(=O)Nc2c(C)cccc2C)C(=O)N1/N=C/c1cccs1 (stereo not drawn),inactive
15,O=C1c2[nH]nc(-c3ccccc3)c2C(c2ccccc2)N1c1cccc(C(F)(F)F)c1 (stereo not drawn),inactive
16,S=c1[nH]nc(CSCc2ccc(Cl)cc2Cl)n1-c1ccccc1,"inconclusive: 79.4 µM [inhibitor, partial curve]"
17,Cc1cc(S(=O)(=O)N2CCOCC2)ccc1OCC(=O)Nc1ccc(F)cc1F,inactive
18,CCOC(=O)C1=C(COC(=O)CCOc2ccccc2C)NC(=O)NC1C (stereo not drawn),inactive
19,CCN(CC(=O)Nc1ccc(NC(C)=O)cc1)C(=O)c1cc(S(=O)(=O)N2CCCCCC2)ccc1OC,"inconclusive: 15.8 µM [inhibitor, full curve, poor fit]"
20,COC(=O)c1sc(SC)c(S(=O)(=O)C(C)C)c1N,inactive
21,CCOC(=O)c1c(C)[nH]c(C)c1S(=O)(=O)N1CCC(C(=O)N2CCN(c3cc(C)ccc3C)CC2)CC1,"inconclusive: 70.8 µM [inhibitor, single point]"
22,C=CCNC(=S)NCc1ccc(CNC(=S)NCC=C)cc1,inactive

row,Compound,Potency
1,CN(C)Cc1nc2c([nH]1)c(=O)n(C)c(=O)n2C,active: 3.55 µM
2,Cc1ccc(NC(=O)COC(=O)COc2ccc(Cl)cc2)c([N+](=O)[O-])c1,"inconclusive: 25.1 µM [inhibitor, full curve]"
3,CCCOC(=O)c1c(NC(=O)C2c3ccccc3Oc3ccccc32)sc2c1CCCC2,inactive
4,COc1ccccc1CNC(=O)C1CC2Cn3c(nc4cc(Cl)c(Cl)cc43)C2N1C (stereo not drawn),"inconclusive: 70.8 µM [inhibitor, single point]"
5,Cc1cc(CNC(=O)c2cccc3c2C(=O)c2ccc(-c4ccc(F)cc4OCc4ccccc4)cc2S3(=O)=O)c(C(F)(F)F)o1,"inconclusive: 3.16 µM [inhibitor, full curve, poor fit]"
6,Cc1nc(-c2ccc(Cl)cc2)sc1C1(C)CC(c2ccc([N+](=O)[O-])cc2)=NO1 (stereo not drawn),"inconclusive: 50.1 µM [inhibitor, partial curve]"
7,Cn1cnnc1Sc1ccc(C(=O)OCC(=O)Nc2cc(Cl)cc(Cl)c2)cc1[N+](=O)[O-],"inconclusive: 50.1 µM [inhibitor, partial curve]"
8,N#CC(C#N)=c1ccc2c(c1)N1C(c3ccccc3)=CC(c3ccccc3)C3CCCCC31N=2 (stereo not drawn),"inconclusive: 1.26 µM [inhibitor, full curve, poor fit]"
9,CC1(c2ccc3ccccc3c2)NC(=O)N(CC(=O)Nc2cccc(S(=O)(=O)N3CCOCC3)c2)C1=O (stereo not drawn),"inconclusive: 56.2 µM [inhibitor, partial curve]"
10,O=C(COC(=O)c1ccc(Cl)nc1)Nc1nnc(-c2ccccc2)o1,active: 79.4 µM
11,COc1ccc(S(=O)(=O)N(CCC(N)=O)Cc2ccco2)cc1OC,"inconclusive: 35.5 µM [inhibitor, single point]"
12,O=C(O)c1ccc2c(=O)n3c(nc2c1)/C(=C/c1ccc(OC(F)F)cc1OC(F)F)CC3,"inconclusive: 15.8 µM [inhibitor, partial curve, poor fit]"
13,O=C(Cc1ccc(Cl)cc1)Nc1nnc2n1CCS2,"inconclusive: 4.47 µM [inhibitor, full curve, poor fit]"
14,Cc1ccc(-n2nc(C)c3c(C)cc(=O)n(CC(=O)N4CCCc5ccccc54)c32)cc1,inactive
15,COc1ccc(N2C(=O)CC(N3CCC(c4nc5ccccc5[nH]4)CC3)C2=O)cc1 (stereo not drawn),inactive
16,Cc1nc(N)[nH]c(=O)c1CCCNc1ccc([N+](=O)[O-])cc1,inactive
17,C[C@@H]1COC(=O)[C@@H](CC(=O)OC(C)(C)C)C/C=C\C[C@@H](CC(=O)N[C@H](CO)Cc2ccccc2)C(=O)N1,inactive
18,COc1ccc(C(=O)Nc2nc3c(s2)CCCC3)cc1S(=O)(=O)N1CCCc2ccccc21,"inconclusive: 7.08 µM [inhibitor, partial curve, poor fit]"
19,OC(COc1ccc2c(c1)OCO2)CN1CCN(c2ccccc2)CC1 (stereo not drawn),"inconclusive: 22.4 µM [inhibitor, partial curve]"
20,COc1ccc(C(=O)c2ccc(CC#N)s2)cc1,active: 79.4 µM
21,O=C(COc1ccc2ccccc2c1)N1CCN(c2ccccc2O)CC1,"inconclusive: 79.4 µM [inhibitor, single point]"

# Reference: PubChem BioAssay AID504339 (National Center for Advancing Translational Sciences (NCATS), 2011)
